Experimental data as given in PMC12040169 (PLOS Biology, 2025).
The other results are listed elsewhere or left out.

Test system: T1, C. trachomatis L2/434/Bu expressing GFP (CTL2-GFP)
T1 construct: L2/434/Bu GFP intracellular growth in HeLa cells
Parameters: species or system HeLa; C. trachomatis total inclusion area by high-content imaging, normalised to DMSO
Settings: total inclusion area; 28.5 h, 10 µM; inhibitor
Procedure, shortened: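 Imaging read-out: GFP inclusions and Hoechst nuclei captured by high-content imaging after fixation. Inclusion area/number = chlamydial growth; nuclei count = host cell viability. MIC calculated per earlier method.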

Going from `Cc1ccc(SCCN2CCN(C)CC2)cc1` [CBK269631C] to `CCN(Cc1ccccc1)C(=O)NCCCN1CCN(C)CC1` [CBK155212], the “% of control remaining” value rises from 80.3847 to 89.6649.

Compared with `O=C1C[C@@H]2CCN(C(=O)NC3CCCCC3)C[C@@H]2CCN1CCN1CCNC1=O` [CBK288796], `CC(=O)NCC(=O)N1CC[C@@H]2NC(=O)CNC(=O)C3(CCCC[C@H]2C1)CCN(C(C)=O)CC3` [CBK292014] is higher in “% of control remaining” value: 100.917 for the first, 107.534 for the second.

Compared with `O=C(Cn1nnc2ccccc2c1=O)NC(Cc1ccccc1)c1ccccc1` (centres unmarked) [CBK296933], `Clc1ccccc1-c1nccnc1OC(c1ccccc1)c1ccccc1` [CBK107002] is lower in “% of control remaining” value: 89.7867 for the first, 64.7388 for the second.

First: O=C(O)c1ccccc1-c1ccc(-c2cc(C(=O)O)c3cc(Cl)ccc3n2)o1 [CBK268699]
Second: O=C1c2ccc(-c3nc4ccc(Cl)cc4c(=O)o3)cc2C(=O)N1Cc1cccnc1 [CBK268460]
The “% of control remaining” value of the first is lower: 94.1645 for the first, 112.589 for the second.

Compared with `Cc1cc(NC(=O)c2ccc(C(C)(C)C)cc2)nc2c1c(=O)oc1ccccc12` [CBK291200], `Cc1cccc2c(C(=O)OCC(=O)c3ccc([N+](=O)[O-])cc3)cc(-c3ccc(Cl)cc3)nc12` [CBK264088] is higher in “% of control remaining” value: 88.8164 for the first, 107.337 for the second.

Going from `c1ccc2nc(N3CCCC3)c(OC3CCNC3)nc2c1` (centres unmarked) [CBK115288] to `CN(C)c1ccccc1-c1cc(NC2CCCCC2)ncn1` [CBK037041], the “% of control remaining” value rises from 78.2192 to 113.373.

First: CC(Oc1cccc2ccccc12)C(=S)N(C)c1ccccc1 (centres unmarked) [CBK016158]
Second: NC(=O)OC(c1ccccc1[N+](=O)[O-])P(=O)(c1ccccc1)c1ccccc1 (centres unmarked) [CBK261383]
The “% of control remaining” value of the first is lower: 40.18 for the first, 87.9248 for the second.

Compared with `CC(C)(C)C(=O)NCCn1nc(-c2cccs2)ccc1=O` [CBK283839], `Cn1ccc(C(=O)N2CCOC(c3nc(C(C)(C)C)n[nH]3)C2)cc1=O` (centres unmarked) [CBK305201] is lower in “% of control remaining” value: 54.1974 for the first, 28.8304 for the second.

First: Cc1nc(-c2cccnc2)[nH]c(=O)c1CC(=O)N(C)CC1CCCCC1 [CBK305785]
Second: Cc1ccc2[nH]c(=O)c(CN(Cc3ccccc3)C(=O)NC3CCCCC3)cc2c1 [CBK068704]
The “% of control remaining” value of the first is lower: 40.4469 for the first, 108.227 for the second.

Going from `CCC(c1cccc(OC)c1)N(C)C(=O)CC1CCN(c2nc(C)cc(C)n2)CC1` (centres unmarked) [CBK286255] to `COc1ccc(C(C)C)cc1-c1cncc(N2CCC(C(=O)O)CC2)n1` [CBK037900], the “% of control remaining” value falls from 99.4303 to 79.247.

Compared with `O=C(Cn1ncc2ccccc2c1=O)NNC(=S)Nc1ccc2c(c1)OCO2` [CBK268751], `CN(CC(=O)NCc1ccc2c(c1)OCO2)Cc1ccc(Br)s1` [CBK295185] is higher in “% of control remaining” value: 95.5023 for the first, 108.604 for the second.

First: C=CCn1cc(CN2CCCC(O)(c3ccc(F)cc3)CC2)c(C)n1 (centres unmarked) [CBK285144]
Second: O=C(NCc1ccc(F)cc1)c1cc(Br)cnc1N1CCOCC1 [CBK076246]
The “% of control remaining” value of the first is lower: 105.465 for the first, 116.569 for the second.

Compared with `Cc1nccn1CC(C)CNc1ccc(C(=O)c2ccccc2)cc1[N+](=O)[O-]` (centres unmarked) [CBK298336], `O=C(CSC1c2ccccc2Oc2ccccc21)Nc1cccc(C(=O)O)c1` [CBK266566] is higher in “% of control remaining” value: 90.6233 for the first, 111.98 for the second.

Compared with `Cc1noc(C)c1C(=O)N1CCC2(CC1)CC(=O)c1ccc(OCc3ccccc3)c(C)c1O2` [CBK156506], `COc1ccc(CCNC(=O)[C@@H]2Cc3c([nH]c4ccccc34)[C@]3(CCN(Cc4ccccc4)C3)N2)cc1OC` [CBK062620] is lower in “% of control remaining” value: 87.0289 for the first, 77.3489 for the second.

Compared with `CC(C)=NOc1ncccc1C#N` [CBK007841], `N#Cc1c(Oc2cccc3cccnc23)cccc1C(F)(F)F` [CBK002728] is higher in “% of control remaining” value: 70.1828 for the first, 93.854 for the second.

First: Cc1ccccc1C(NC(=O)C1CCN(C/C=C/c2ccccc2)CC1)c1ncccc1C (centres unmarked) [CBK147980]
Second: CN(C)c1nc(NC2CC2)nc(Oc2ccc(=O)n(-c3ccccc3)n2)n1 [CBK270187]
The “% of control remaining” value of the first is higher: 102.647 for the first, 72.0216 for the second.

First: Cc1ccc(N(CC(=O)Nc2ccccc2F)S(=O)(=O)c2ccc(F)cc2)cc1 [CBK263333]
Second: O=C(O)c1ccc(NS(=O)(=O)c2ccccc2)cc1O [CBK023181]
The “% of control remaining” value of the first is lower: 85.9179 for the first, 89.5024 for the second.

Going from `COc1cccc(C(=O)N2CCCC(c3cc4cnccc4[nH]3)C2)c1` (centres unmarked) [CBK285417] to `Cn1nccc1C(=O)C1CCN(C(=O)c2cccc(F)c2)CC1` [CBK284426], the “% of control remaining” value rises from 85.1804 to 87.3767.

Compared with `CC(=O)N1CCN(C(=O)C2C(C(=O)O)C2(C)C)CC1` (centres unmarked) [CBK287021], `CC(=O)N1CCN(C(=O)C[C@@H]2C[C@@H](C(C)C)[C@H](CNC(=O)c3cccnc3)C=C2C)CC1` [CBK289046] is lower in “% of control remaining” value: 101.746 for the first, 98.5856 for the second.

Going from `Cc1cccc(OCCN2C(=O)CC(Cc3cnn(C)c3)C2=O)c1` (centres unmarked) [CBK304081] to `Clc1ccc(CN2CCC(Oc3nccnc3OCCN3CCOCC3)CC2)cc1` [CBK082918T], the “% of control remaining” value rises from 33.2728 to 75.6578.

Going from `Cc1nnc(SCC(=O)Nc2nnc(C(C)C)s2)[nH]c1=O` [CBK022107] to `Nc1nnc(SCC(=O)c2ccc3ccccc3c2)s1` [CBK266120], the “% of control remaining” value falls from 86.2274 to 0.

Going from `C[C@H](Nc1nccnc1-c1ccsc1)c1ccccc1` [CBK088716] to `COc1cc(-c2nccnc2NCCc2c[nH]c3ccccc23)cc(OC)c1OC` [CBK038015], the “% of control remaining” value rises from 98.8566 to 165.151.

First: COc1cc2c(cc1-c1cn(CCc3n[nH]c(=O)[nH]3)nn1)CCC2 [CBK307112]
Second: O=C(CCc1nc(=O)c2c3c(sc2[nH]1)CCC3)N1CCCCCC1 [CBK306388]
The “% of control remaining” value of the first is higher: 73.0145 for the first, 71.0916 for the second.

Compared with `Cc1cc(C)nc(NCc2cnn(C)c2C)n1` [CBK306276], `Cn1ncc2c(=O)n(Cc3noc(-c4ccco4)n3)cnc21` [CBK305053] is higher in “% of control remaining” value: 31.0521 for the first, 80.2402 for the second.

Compared with `Cc1ccc(C2C=C(c3ccccc3)Nc3nc(N4C(=O)CCC4=O)nn32)cc1` (centres unmarked) [CBK266197], `O=C1Nc2ccc(-c3ccc(Cl)cc3)cc2C(=O)N2CCN(C(=O)c3cccnc3)C[C@H]12` [CBK289590] is lower in “% of control remaining” value: 105.805 for the first, 98.9105 for the second.

First: CN1CCC(C(=O)N2CCN(c3ccccc3)CC2)CC1 [CBK200211]
Second: O=C(Nc1nccs1)c1cc(C2CCN(C(=O)CC3CCCCC3)C2)nc2ccccc12 (centres unmarked) [CBK285586]
The “% of control remaining” value of the first is higher: 95.5332 for the first, 41.1158 for the second.

First: COc1ccc(Cl)cc1N1CCN(Cc2ccc3ccccc3c2)CC1 [CBK126414]
Second: CS(=O)(=O)N1CCN(CC(O)Cn2c3ccc(Cl)cc3c3cc(Cl)ccc32)CC1 (centres unmarked) [CBK264381]
The “% of control remaining” value of the first is higher: 91.4809 for the first, 85.878 for the second.

Compared with `Cc1nc2cc(OCc3ccc(-c4nccnc4-c4nnn[nH]4)cc3)ccc2s1` [CBK050820], `CCOC(=O)N1CCC(NC(=O)c2ccc(Nc3cncc(-c4ccc(O)cc4)n3)cc2)CC1` [CBK115694] is higher in “% of control remaining” value: 94.1375 for the first, 94.1879 for the second.

First: N#CCCN(C(=O)NCc1cccc(C(F)(F)F)c1)C1CCCCC1 [CBK156350]
Second: O=C(Nc1ccc2c(c1)OCCO2)N1CCCCC1CO (centres unmarked) [CBK156178]
The “% of control remaining” value of the first is lower: 94.4033 for the first, 95.4434 for the second.

Going from `Cc1cc(C(=O)O)c(NC(=O)c2cccc(Cl)c2)s1` [CBK126813] to `Cc1cc(-c2cc(C(=O)NN3CCN(C)CC3)c3cc(Cl)ccc3n2)c(C)s1` [CBK267738], the “% of control remaining” value rises from 92.4381 to 106.126.

First: Nc1ccc(Oc2ccc(-n3c(=O)c4cc5c(=O)n(-c6ccc(Oc7ccc(N)cc7)cc6)c(=O)c5cc4c3=O)cc2)cc1 [CBK261489]
Second: O=c1[nH]c(=O)c2cc(S(=O)(=O)Nc3cccc(CCc4ccccn4)c3)ccc2[nH]1 [CBK286389]
The “% of control remaining” value of the first is higher: 116.05 for the first, 96.7683 for the second.

Going from `COC(=O)C1CC(O)CN1S(=O)(=O)c1cccs1` (centres unmarked) [CBK086668] to `COCC(C)NC(=O)C1CCCN(S(=O)(=O)c2ccc(OC)c(C)c2)C1` (centres unmarked) [CBK270242], the “% of control remaining” value rises from 73.2206 to 77.4838.

Compared with `CC(=O)N(C)c1ccc(NS(=O)(=O)c2cc(C)c(Cl)cc2C)cc1` [CBK045298], `COc1cc(/C=N/NC(=O)CCn2c3ccc(Cl)cc3c3cc(Cl)ccc32)ccc1O` [CBK262351] is higher in “% of control remaining” value: 61.1168 for the first, 98.9349 for the second.

Compared with `CC(C)(CO)Cn1c(=O)[nH]c2ncc(-c3ccc(F)c(Cl)c3)nc21` [CBK064737], `OCCNc1cncc(-c2ccc3c(c2)OCO3)n1` [CBK065979] is lower in “% of control remaining” value: 92.8293 for the first, 58.8937 for the second.

First: CC(=O)Oc1ccc(-c2cccc(C(=O)NCC(=O)O)c2)cc1 [CBK263828]
Second: CC(=O)c1ccc(-c2ccc(/C=C\c3[nH]c(=O)[nH]c(=O)c3[N+](=O)[O-])o2)cc1 [CBK267038]
The “% of control remaining” value of the first is lower: 63.7899 for the first, 101.507 for the second.

First: COc1ccc(C(=O)NC2CCCNC2=O)s1 (centres unmarked) [CBK282938]
Second: O=C(NCC1(O)CCSC1)c1c[nH]nc1-c1cc2ccccc2o1 (centres unmarked) [CBK306159]
The “% of control remaining” value of the first is higher: 106.451 for the first, 94.4426 for the second.

Going from `CC1=C(C)CC(C(=O)Nc2sc3c(c2C(=O)OC(C)C)CCCC3)C(C(=O)O)C1` (centres unmarked) [CBK265428] to `Cc1nnc(CCNC2CCN(c3ncnc4c(C)csc34)CC2)s1` [CBK307574], the “% of control remaining” value falls from 82.7711 to 64.2501.

Going from `O=C(C1CC1)N1CC2CCCC(C1)C2(O)c1cccnc1F` (centres unmarked) [CBK282889] to `Nn1cnnc1SC1CCCCC1NS(=O)(=O)c1ccccc1` (centres unmarked) [CBK266361], the “% of control remaining” value rises from 72.1125 to 124.262.

In the case of `Cc1cc([N+](=O)[O-])cc2c1NC(=O)C2(O)N1CCOCC1` (centres unmarked) [CBK262475], the “% of control remaining” value is reported as 91.8531.
